In PubChem BioAssay AID488969 (Vanderbilt High Throughput Screening Facility, 2010):
In all, about 110,000 compounds were measured (“z-score”: median about -0.1, highest 2% from about 2 on). The list shows a part of the results.

target: Metabotropic glutamate receptor 8 (Rattus norvegicus) (UniProt P70579); assay: rat mGluR8 modulators via GIRK flux, primary screen, cell-based, thallium flux, HTS (AID 488969); settings: HEK293 rat mGluR8, GIRK (G protein-gated inwardly rectifying potassium channel) thallium flux, FluoZin2; at 10 µM; stronger effect = higher value; submaximal glutamate (EC20) added with thallium
Chain of UniProt P70579 (P70579 whole entry, looked up): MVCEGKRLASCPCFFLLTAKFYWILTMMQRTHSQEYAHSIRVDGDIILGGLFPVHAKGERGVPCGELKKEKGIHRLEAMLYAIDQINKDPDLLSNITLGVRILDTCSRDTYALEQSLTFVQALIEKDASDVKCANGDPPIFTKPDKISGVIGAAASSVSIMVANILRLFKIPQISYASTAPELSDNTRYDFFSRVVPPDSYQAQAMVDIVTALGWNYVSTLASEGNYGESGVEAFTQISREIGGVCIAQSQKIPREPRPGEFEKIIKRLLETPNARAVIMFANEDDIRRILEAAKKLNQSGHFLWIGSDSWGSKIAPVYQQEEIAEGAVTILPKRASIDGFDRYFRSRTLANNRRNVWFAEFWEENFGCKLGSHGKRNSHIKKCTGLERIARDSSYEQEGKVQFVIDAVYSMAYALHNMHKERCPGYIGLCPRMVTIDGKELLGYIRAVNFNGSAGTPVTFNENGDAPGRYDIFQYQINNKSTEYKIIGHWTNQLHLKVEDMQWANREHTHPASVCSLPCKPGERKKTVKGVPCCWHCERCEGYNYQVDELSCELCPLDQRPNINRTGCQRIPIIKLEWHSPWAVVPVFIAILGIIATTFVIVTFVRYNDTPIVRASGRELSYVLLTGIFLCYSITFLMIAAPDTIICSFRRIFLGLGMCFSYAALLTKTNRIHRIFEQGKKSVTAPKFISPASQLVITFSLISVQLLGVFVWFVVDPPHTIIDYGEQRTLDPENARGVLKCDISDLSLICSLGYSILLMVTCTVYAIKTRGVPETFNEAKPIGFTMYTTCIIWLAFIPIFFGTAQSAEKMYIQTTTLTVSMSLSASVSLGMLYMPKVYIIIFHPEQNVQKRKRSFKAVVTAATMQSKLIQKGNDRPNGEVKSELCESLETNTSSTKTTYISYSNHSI

| Structure (SMILES) | z-score |
| --- | --- |
| Cc1ccc(NC(=O)c2ccccc2)cc1 | 0.0142 |
| CCOC(=O)CC(NC(=O)Cc1ccc(F)cc1)c1ccccc1Cl (stereo not given) | -0.193 |
| CCCCCCC1NC(C(=O)O)CS1 (stereo not given) | -0.607 |
| CCCCN(Cc1ccccc1)C(=O)C1CCCN(S(=O)(=O)c2cnc[nH]2)C1 (stereo not given) | -0.245 |
| O=C(CSc1ncnc2sc3c(c12)CCCC3)N1CCC(c2noc3ccc(F)cc23)CC1 | 0.658 |
| CCCCc1ccc(-c2csc(/C(C#N)=C\c3ccc(C)o3)n2)cc1 | -0.34 |
| CN1CCN(c2ccccc2NC(=O)c2ccc(Br)o2)CC1 | 0.236 |
| COCCCNC(=O)CCc1nc(-c2ccccc2Cl)no1 | 0.26 |
| Cn1nnnc1SCC(=O)Nc1cc(C(=O)O)cc(C(=O)O)c1 | -0.359 |
| O=C(O)CN1C(=O)SC(Nc2ccc(Cl)cc2)C1=O (stereo not given) | -0.104 |
| O=C(COc1ccccc1)NCc1cccs1 | -0.279 |
| C/C(=N\n1nnnc1Nc1ccccc1)c1ccc(N)cc1 | -0.254 |
| O=C(CN(Cc1ccccc1)S(=O)(=O)c1ccc2c(c1)OCCO2)N/N=C/c1cccc(Br)c1 | 0.0191 |
| O=[N+]([O-])c1cc(S(=O)(=O)Nc2ccccc2)ccc1-n1nnc2ccccc21 | -1.02 |
| O=C(Cc1ccc(Cl)cc1)Nc1ccc(NC(=O)c2ccccc2)cc1 | -0.308 |
| CC1(C)CC(=O)c2cc(OCC(=O)N3CCCCCC3)ccc2O1 | -0.462 |
| CCOC(=O)N1CCN(C(=O)/C(=C/c2ccc(OC)cc2)NC(=O)c2ccccc2)CC1 | -0.264 |
| Cc1ccc(-c2nnc(SCC(=O)NNC(=O)COc3ccccc3C)n2C)cc1 | -0.319 |
| CN(C)c1cccc(NC(=O)Cc2ccc(F)cc2)c1 | 0.139 |
| O=c1[nH]c2cccnc2n1Cc1ccccc1 | -0.166 |
| Cc1ccc(C)c(NC(=O)C2Cc3ccccc3CN2C(=O)OCc2ccccc2)c1 (stereo not given) | -0.537 |
| CCOC(=O)C(Cc1ccc(NC(=O)/C(=C/c2ccccc2)NC(=O)c2ccccc2)cc1)N1C(=O)c2ccccc2C1=O (stereo not given) | -0.253 |
| O=C(Nc1nc(-c2ccccc2)cs1)C1CCCCN1S(=O)(=O)c1ccc(Cl)cc1 (stereo not given) | -0.237 |
| CCSc1nc2nn(-c3ccccc3)c(=O)c-2c2n1CCCCC2 | -0.536 |
| CCn1c2ccccc2c2cc(NC(=O)CSc3nnc(-c4ccccc4)o3)ccc21 | 0.0695 |
| O=C(CCSc1nnc(-c2ccncc2)o1)Nc1ccccc1 | -0.072 |
| CCn1c(=O)c(C(=O)NCc2ccccn2)c(O)c2ccccc21 | -0.0558 |
| CCC(C)(C(=O)NC1CCCCC1)N(C)C(=O)c1ccc2c(c1)OCO2 (stereo not given) | -0.364 |

| Structure (SMILES) | z-score |
| --- | --- |
| COc1ccc2[nH]c(C(=O)O)c(NS(=O)(=O)c3ccc(OC)c(OC)c3)c2c1 | -0.117 |
| C/C(=N\NC(=O)CN(c1ccccc1Br)S(C)(=O)=O)c1ccc2c(c1)OCCO2 | 0.505 |
| CCCCOc1ccc2c(C)cc(=O)oc2c1OCCCC | -0.635 |
| OC1CCCN(C(=S)Nc2ccc(SC(F)F)cc2)C1 (stereo not given) | -0.328 |
| CCOc1ccc(C(=O)COc2ccc(NC(C)=O)cc2)cc1 | -0.485 |
| O=C(NCc1cccnc1)C1CCN(S(=O)(=O)c2cccnc2)CC1 | -0.219 |
| CCNS(=O)(=O)c1ccc(NC(=O)c2ccccc2OCC)cc1 | -0.0887 |
| CN(c1ccc(OCC(=O)NC2CCCC2)cc1)S(=O)(=O)c1cccs1 | -0.0565 |
| CCOc1nc(-c2ccccc2)ccc1-c1noc(-c2cccs2)n1 | -0.148 |
| c1ccc(-n2nnnc2CN2CCOCC2)cc1 | 0.041 |
| Cc1ccccc1CN1CCN(CC2CC3C=CC2C3)CC1 (stereo not given) | -0.0221 |
| O=C(Nc1ccccc1)OCc1cc(-c2ccc(Cl)cc2)on1 | -0.494 |
| COc1ccc(-c2nc(SCc3ccccc3)n(C(=O)c3ccco3)n2)cc1 | -0.152 |
| O=C(NCC(c1cccnc1)N1CCN(c2ccccc2F)CC1)c1ccco1 (stereo not given) | 0.32 |
| COc1ccccc1C1(CCNS(=O)(=O)c2ccc(C)cc2)CCOC(C(C)C)C1 (stereo not given) | -0.293 |
| Cc1ccc(C)c(NS(=O)(=O)c2cc(C(=O)N3CCc4ccccc4C3)ccc2Cl)c1 | -0.21 |
| COc1ccc(C(=S)N2CCOCC2)cc1OS(=O)(=O)c1ccccc1[N+](=O)[O-] | -0.118 |
| CCOc1ccc2[nH]c(=O)c(CN(Cc3ccccc3)C(=O)N3CCCC3)cc2c1 | 0.0044 |
| O=C1NC(c2ccccc2)=C(c2nc3ccccc3s2)C(c2ccc(F)cc2)N1 (stereo not given) | -0.195 |
| O=C(NC1CCCCC1)N1CCN(c2ccccc2)CC1 | 0.0334 |
| Cc1ccc(S(=O)(=O)Cc2ccc(C(=O)NCCCN3CCN(C)CC3)o2)cc1 | 0.0989 |
| CC(C)C(=O)Nc1cccc(-c2nc3ccccc3o2)c1 | -0.391 |
| CS(=O)(=O)N(Cc1nc2sc3c(c2c(=O)[nH]1)CCCC3)C1CCCCC1 | 1.06 |
| CCc1cc(=O)n2[nH]c(C)c(-c3ccccc3OC)c2n1 | 0.4 |
| Cc1ccc(Cn2c(SCC(C)C)nc3c2c(=O)[nH]c(=O)n3C)cc1 | -0.876 |
| Cc1nn(C)c(C)c1/C=C1/SC(=S)NC1=O | 0.492 |
| Cc1nc(/N=C(\N)NC(=O)c2ccccc2)nc2ccccc12 | 2.8 |
